Measurements as given in the supplement of paper PMC12819154, “High-throughput peptide-centric local stability assay extends protein–ligand identification to membrane proteins, tissues and bacteria” (Nature Structural & Molecular Biology, 2025).

Compound: CN[C@@H]1C[C@H]2O[C@@](C)([C@@H]1OC)n1c3ccccc3c3c4c(c5c6ccccc6n2c5c31)C(=O)NC4 [staurosporine]
Assay: log2 fold change of tryptic peptide abundance, ligand vs vehicle (limited proteolysis) (log2 ratio); higher = more trypsin-susceptible (destabilized)
Details: ligand concentration: 20 uM; sample: K562 cleared lysate; digestion: 4 min, 22 C (HT-PELSA RT4min, Orbitrap Astral)

Chain of UniProt P06576 (P06576 whole entry): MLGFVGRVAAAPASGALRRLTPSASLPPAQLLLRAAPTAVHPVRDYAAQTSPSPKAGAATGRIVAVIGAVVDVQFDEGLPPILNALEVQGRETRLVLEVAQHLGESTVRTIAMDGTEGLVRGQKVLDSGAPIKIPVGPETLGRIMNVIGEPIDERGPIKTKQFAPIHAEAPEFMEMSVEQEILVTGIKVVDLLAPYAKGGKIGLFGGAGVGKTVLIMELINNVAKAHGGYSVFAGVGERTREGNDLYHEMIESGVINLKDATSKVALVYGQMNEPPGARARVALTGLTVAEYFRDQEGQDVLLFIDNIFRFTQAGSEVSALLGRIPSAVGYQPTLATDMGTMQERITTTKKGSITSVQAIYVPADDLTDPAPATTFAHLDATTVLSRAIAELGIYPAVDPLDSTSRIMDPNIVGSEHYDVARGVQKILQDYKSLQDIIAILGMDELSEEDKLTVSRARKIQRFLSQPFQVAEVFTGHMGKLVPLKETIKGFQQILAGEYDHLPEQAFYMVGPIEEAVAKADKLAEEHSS
Chain of UniProt Q9Y243 (Q9Y243 whole entry): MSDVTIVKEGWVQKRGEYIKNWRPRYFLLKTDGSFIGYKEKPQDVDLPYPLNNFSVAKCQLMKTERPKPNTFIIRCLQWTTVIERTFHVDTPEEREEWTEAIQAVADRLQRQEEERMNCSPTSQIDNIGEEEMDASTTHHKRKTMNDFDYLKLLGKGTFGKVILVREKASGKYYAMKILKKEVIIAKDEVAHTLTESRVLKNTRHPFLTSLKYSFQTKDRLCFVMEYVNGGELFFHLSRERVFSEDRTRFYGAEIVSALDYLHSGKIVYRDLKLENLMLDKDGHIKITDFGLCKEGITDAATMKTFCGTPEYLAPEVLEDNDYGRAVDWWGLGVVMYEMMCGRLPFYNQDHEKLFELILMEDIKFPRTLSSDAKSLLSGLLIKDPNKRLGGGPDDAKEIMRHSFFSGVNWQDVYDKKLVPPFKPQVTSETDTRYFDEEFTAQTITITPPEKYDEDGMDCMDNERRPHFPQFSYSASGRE
Chain of UniProt Q86U28 (Q86U28 whole entry): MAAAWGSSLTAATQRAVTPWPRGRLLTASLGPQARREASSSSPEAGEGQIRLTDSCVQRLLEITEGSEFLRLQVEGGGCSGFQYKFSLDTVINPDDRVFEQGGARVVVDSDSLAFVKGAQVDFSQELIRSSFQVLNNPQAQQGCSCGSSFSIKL
Chain of UniProt P48730 (P48730 whole entry, looked up): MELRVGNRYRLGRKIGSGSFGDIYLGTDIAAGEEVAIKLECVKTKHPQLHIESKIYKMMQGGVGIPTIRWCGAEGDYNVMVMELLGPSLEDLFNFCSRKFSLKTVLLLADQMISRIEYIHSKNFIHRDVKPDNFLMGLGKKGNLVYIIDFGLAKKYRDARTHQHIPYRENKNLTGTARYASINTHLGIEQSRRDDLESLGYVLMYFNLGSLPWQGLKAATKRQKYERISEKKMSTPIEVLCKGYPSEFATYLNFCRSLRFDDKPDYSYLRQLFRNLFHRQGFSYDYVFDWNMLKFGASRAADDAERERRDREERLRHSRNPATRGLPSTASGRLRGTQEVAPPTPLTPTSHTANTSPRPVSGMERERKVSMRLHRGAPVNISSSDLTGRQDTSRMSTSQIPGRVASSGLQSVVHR
Chain of UniProt O95396 (O95396 whole entry): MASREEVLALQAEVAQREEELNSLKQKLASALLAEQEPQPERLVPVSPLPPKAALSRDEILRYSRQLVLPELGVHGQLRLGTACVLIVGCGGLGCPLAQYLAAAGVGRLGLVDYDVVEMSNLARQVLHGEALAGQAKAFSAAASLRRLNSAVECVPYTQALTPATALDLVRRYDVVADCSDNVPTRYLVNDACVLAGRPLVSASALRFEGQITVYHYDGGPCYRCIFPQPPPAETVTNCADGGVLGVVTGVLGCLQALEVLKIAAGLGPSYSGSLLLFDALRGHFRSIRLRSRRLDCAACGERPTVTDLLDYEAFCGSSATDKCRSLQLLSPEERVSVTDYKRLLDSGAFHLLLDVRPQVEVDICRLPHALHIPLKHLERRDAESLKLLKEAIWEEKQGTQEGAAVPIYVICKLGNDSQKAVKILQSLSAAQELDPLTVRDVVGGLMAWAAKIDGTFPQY
Chain of UniProt Q12768 (Q12768 whole entry): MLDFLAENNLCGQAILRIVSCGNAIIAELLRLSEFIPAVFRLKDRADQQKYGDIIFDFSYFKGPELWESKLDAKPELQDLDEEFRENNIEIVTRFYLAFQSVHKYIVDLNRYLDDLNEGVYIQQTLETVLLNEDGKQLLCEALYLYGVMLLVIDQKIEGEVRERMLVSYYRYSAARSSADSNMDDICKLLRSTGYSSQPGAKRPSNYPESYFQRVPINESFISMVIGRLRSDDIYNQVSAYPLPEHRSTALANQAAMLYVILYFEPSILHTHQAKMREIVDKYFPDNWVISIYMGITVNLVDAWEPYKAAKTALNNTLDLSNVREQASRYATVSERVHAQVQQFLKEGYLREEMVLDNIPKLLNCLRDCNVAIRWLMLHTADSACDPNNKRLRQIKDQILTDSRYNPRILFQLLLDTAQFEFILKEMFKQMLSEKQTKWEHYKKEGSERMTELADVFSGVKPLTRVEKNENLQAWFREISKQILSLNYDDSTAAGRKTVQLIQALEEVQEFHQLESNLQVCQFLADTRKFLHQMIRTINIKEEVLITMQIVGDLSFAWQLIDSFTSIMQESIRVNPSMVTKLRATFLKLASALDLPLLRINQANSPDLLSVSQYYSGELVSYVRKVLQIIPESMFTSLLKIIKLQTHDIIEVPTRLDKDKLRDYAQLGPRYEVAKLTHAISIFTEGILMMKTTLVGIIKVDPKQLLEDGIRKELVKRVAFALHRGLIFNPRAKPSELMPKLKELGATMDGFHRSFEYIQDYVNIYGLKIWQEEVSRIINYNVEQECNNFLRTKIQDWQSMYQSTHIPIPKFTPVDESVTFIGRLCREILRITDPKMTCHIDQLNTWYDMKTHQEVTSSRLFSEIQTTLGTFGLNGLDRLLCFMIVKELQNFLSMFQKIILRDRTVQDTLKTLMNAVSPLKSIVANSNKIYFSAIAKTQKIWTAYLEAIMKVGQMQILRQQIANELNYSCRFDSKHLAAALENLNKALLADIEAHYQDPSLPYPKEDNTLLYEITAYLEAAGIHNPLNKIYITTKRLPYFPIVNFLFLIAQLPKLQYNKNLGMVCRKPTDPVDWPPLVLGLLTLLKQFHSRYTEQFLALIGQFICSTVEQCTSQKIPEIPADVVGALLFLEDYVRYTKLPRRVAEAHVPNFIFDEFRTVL
Chain of UniProt Q9NVM4 (Q9NVM4 whole entry): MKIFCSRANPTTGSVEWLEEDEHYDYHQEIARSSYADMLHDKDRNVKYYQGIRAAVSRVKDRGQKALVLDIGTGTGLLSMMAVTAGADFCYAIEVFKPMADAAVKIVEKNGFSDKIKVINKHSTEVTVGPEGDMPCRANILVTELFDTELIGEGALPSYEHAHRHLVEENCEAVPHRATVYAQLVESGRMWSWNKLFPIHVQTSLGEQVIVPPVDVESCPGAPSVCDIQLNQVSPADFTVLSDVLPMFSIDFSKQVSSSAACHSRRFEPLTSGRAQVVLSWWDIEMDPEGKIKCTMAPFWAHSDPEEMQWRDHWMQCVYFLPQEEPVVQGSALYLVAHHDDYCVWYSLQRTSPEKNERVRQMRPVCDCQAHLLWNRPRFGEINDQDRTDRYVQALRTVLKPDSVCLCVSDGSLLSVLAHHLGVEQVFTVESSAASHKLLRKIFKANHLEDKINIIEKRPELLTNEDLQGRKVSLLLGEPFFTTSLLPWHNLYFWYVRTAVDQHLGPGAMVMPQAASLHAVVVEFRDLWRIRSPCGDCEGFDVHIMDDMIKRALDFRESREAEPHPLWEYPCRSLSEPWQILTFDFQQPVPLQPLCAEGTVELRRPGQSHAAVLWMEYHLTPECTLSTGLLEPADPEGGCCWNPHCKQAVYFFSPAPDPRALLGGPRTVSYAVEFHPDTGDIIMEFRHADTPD
Chain of UniProt Q9UBF8 (Q9UBF8 whole entry, looked up): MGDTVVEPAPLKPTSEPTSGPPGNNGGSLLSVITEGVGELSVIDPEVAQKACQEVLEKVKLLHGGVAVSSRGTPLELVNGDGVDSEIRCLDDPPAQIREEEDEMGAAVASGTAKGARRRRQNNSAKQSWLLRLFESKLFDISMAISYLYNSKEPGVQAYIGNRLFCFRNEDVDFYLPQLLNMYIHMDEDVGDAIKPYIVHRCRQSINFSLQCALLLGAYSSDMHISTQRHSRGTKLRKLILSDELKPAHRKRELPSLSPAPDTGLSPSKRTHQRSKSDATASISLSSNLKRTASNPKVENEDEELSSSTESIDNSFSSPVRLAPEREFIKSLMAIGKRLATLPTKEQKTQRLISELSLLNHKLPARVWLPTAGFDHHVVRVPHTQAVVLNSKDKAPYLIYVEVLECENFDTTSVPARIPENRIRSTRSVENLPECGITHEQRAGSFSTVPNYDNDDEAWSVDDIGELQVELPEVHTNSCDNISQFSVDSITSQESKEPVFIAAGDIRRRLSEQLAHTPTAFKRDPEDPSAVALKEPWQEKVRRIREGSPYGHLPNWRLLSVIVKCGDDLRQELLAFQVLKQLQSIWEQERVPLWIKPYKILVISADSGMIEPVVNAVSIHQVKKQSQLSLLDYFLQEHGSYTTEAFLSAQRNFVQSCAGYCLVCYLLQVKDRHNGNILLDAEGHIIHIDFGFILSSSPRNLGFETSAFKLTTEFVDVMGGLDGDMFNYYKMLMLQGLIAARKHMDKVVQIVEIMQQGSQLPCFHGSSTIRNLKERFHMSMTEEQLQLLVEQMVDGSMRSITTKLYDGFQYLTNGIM
Chain of UniProt P11309 (P11309 whole entry, looked up): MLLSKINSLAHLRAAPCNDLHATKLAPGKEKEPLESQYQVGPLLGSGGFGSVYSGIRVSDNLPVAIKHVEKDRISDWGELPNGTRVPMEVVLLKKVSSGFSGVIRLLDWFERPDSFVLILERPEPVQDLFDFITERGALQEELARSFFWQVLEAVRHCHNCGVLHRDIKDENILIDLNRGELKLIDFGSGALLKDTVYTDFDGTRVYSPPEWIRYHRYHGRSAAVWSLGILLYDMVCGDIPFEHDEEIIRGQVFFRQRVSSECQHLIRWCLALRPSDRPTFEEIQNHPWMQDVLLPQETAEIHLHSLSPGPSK

Target | log2 fold change
UniProt O14757 (peptide sequence: ILVENPSAR, peptide start residue: 245) | -2.41
ACACA (peptide sequence: LGTPELSTAERK, peptide start residue: 2151) (UniProt Q13085) | 0.587
MOCS3 (peptide sequence: ILQSLSAAQELDPLTVR, peptide start residue: 424) (UniProt O95396) | -0.411
TLK2 (peptide sequence: RKPPAMGQAPPATNEQK, peptide start residue: 345) (UniProt Q86UE8) | -0.319
PIM1 (peptide sequence: LIDFGSGALLK, peptide start residue: 184) (UniProt P11309) | -1.33
UniProt P42679 (peptide sequence: NILVSEDLVAK, peptide start residue: 357) | -1.01
UniProt O14733 (peptide sequence: ILMDLDVVLK, peptide start residue: 163) | -0.371
UniProt Q9BWU1 (peptide sequence: DLKPANILVMGEGPER, peptide start residue: 151) | -0.932
CAPNS1 (peptide sequence: TDGFGIDTCR, peptide start residue: 136) (UniProt P04632) | 0.372
PIK3R3 (peptide sequence: TAIEAFNETIK, peptide start residue: 479) (UniProt Q92569) | -0.409
TEC (peptide sequence: GCLLNFLR, peptide start residue: 448) (UniProt P42680) | -1.96
P4HB (peptide sequence: LKAEGSEIR, peptide start residue: 70) (UniProt P07237) | 0.626
UniProt Q12768 (peptide sequence: RVAEAHVPNFIFDEFR, peptide start residue: 1141) | 0.42
CAMK2A (peptide sequence: DLKPENLLLASK, peptide start residue: 136) (UniProt Q9UQM7) | -3.45
RNASEL (peptide sequence: TFCEGSPR, peptide start residue: 393) (UniProt Q05823) | -0.842
GPATCH8 (peptide sequence: KALGGDVSDQSLESHSQK, peptide start residue: 484) (UniProt Q9UKJ3) | 1.36
ISCA2 (peptide sequence: LTDSCVQR, peptide start residue: 52) (UniProt Q86U28) | 0.861
UniProt Q9UHA3 (peptide sequence: NEPIKYQR, peptide start residue: 76) | 0.373
FECH (peptide sequence: ECGVENIR, peptide start residue: 359) (UniProt P22830) | -1.54
UniProt P06576 (peptide sequence: AAPTAVHPVR, peptide start residue: 35) | 0.808
UniProt Q5VT25 (peptide sequence: LHREDFEILK, peptide start residue: 72) | -0.952
AKT3 (peptide sequence: ITDFGLCK, peptide start residue: 290) (UniProt Q9Y243) | -0.976
CTR9 (peptide sequence: GEEGSDDDETENGPKPK, peptide start residue: 966) (UniProt Q6PD62) | 1.56
UniProt P48730 (peptide sequence: MMQGGVGIPTIR, peptide start residue: 58) | -0.401
ERP29 (peptide sequence: FDTQYPYGEKQDEFKR, peptide start residue: 60) (UniProt P30040) | 0.783
UniProt Q9UBF8 (peptide sequence: VWLPTAGFDHHVVR, peptide start residue: 367) | -0.889
UniProt O95747 (peptide sequence: EVLEGLEYLHK, peptide start residue: 129) | 0.742
MIF (peptide sequence: LLCGLLAER, peptide start residue: 79) (UniProt P14174) | -0.364
PRMT7 (peptide sequence: EAEPHPLWEYPCR, peptide start residue: 560) (UniProt Q9NVM4) | 0.759
